Reference: PubChem BioAssay AID1508623 (National Center for Advancing Translational Sciences (NCATS), 2021)
Hit rate of the full screen: of about 48,000 compounds, about 450 (0.94%) were called active. Roughly 19% stayed inconclusive and do not appear here. The call rests on the fitted dose curve; in most records, active means well fitted inhibition curve with a large enough effect; inconclusive means small, poorly fitted or top-dose-only effect; inactive means no such curve, though single readings can be large or run the other way. Some of the results follow.

assay: Primary qHTS for Identification of Small Molecule Inhibitors of Huntingtin Promoter Activity; conditions: HEK293 HTT promoter firefly luciferase reporter (activity 0% = vehicle and -100% = no light), 24 h; series mostly up to 57.5 µM; activity change, negative = inhibition: at the top concentration; further: nearly all actives have a fitted effect of over 50% in size
Outline: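 HEK293 cells carrying firefly luciferase reporters were seeded at 2,500 per well in Opti-MEM and cultured for 24 h. They were then treated with compounds at up to 57.5 uM final for 24 h at 37 degrees C before Dual-Glo luminescence readout.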

Activity change, negative = inhibition, inactive:
CCC(=O)Nc1ccc(CC)cc1-c1nc2ccccc2n(CC(=O)Nc2ccccc2C)c1=O -9.03%
COc1ccc(-c2onc(C)c2C)cc1S(=O)(=O)Nc1cc(Cl)ccc1C -18.3%
CCN(CC)c1ccc(NC(=O)CCS(=O)(=O)c2ccc3c(c2)oc(=O)n3C)c(C)c1 -9.05%
CC(C)OCCCn1c(=O)c2ccccc2n2c(-c3cc(Cl)ccc3O)nnc12 -14.1%
COc1cc(C(=O)Nc2ccc(-c3nc4ccccc4o3)c(O)c2)cc(OC)c1OC -12.6%
Cc1cn2c(=O)cc(COC(=O)c3ccc(NC(=O)COc4ccc(C)c(C)c4)cc3)nc2s1 -17.2%
COc1cc2c(cc1OC)C(COc1ccc(F)cc1)N(C(=O)Cc1ccccc1)CC2 (configuration not stated) -20%
CCOc1ccc(-c2cc(C(=O)NCCCOC)c3c(-c4ccc(CC)cc4)[nH]nc3n2)cc1 -12.7%
CCc1ccccc1NC(=O)CN1C(=O)c2cccnc2Sc2ccccc21 -4.87%
CCn1c(=O)c2sccc2n2c(CCC(=O)Nc3ccc(OC)cc3OC)nnc12 -11.6%
Cc1ccc(Cn2c(CNC(=O)Cc3cccc([N+](=O)[O-])c3)nc3cccnc32)cc1 -11.7%
O=c1c2ccccc2n(Cc2c(F)cccc2Cl)c(=O)n1Cc1ccccc1 -50.2%
CCn1c(=O)cc(OCC(=O)N2CCN(c3cccc(Cl)c3)CC2)c2ccccc21 -13.7%
CCCCOc1ccc(CNC(=O)C2CCCN(c3nnc(-n4c(C)ccc4C)s3)C2)cc1 (configuration not stated) -29.8%
Cc1ccc2c(c1)sc1nc(=O)n(-c3ccc(Cl)c(Cl)c3)c(=O)n12 -8.9%
COc1ccc(C2=C(C)C(=NCc3ccc(OC(C)C)cc3)NS2(=O)=O)cc1 -12%
CCNc1ccc(-c2nc(-c3ccncc3)no2)cc1[N+](=O)[O-] 30.7%
CCN1CCN(C(=O)N[C@@H](C(=O)N[C@@H]2C(=O)N3[C@@H]2SC(C)(C)[C@H]3C(=O)O)c2ccccc2)C(=O)C1=O 1.35%
CCn1cc(C(=O)NCCc2ccc(Cl)cc2)c(=O)c2cc(S(=O)(=O)N3CCCCCC3)ccc21 -9.77%
Cc1nn(CCCC(=O)Nc2cccc(C(F)(F)F)c2)c(=O)c2nn(-c3ccccc3)c(C)c12 -14.2%
COc1cccc2c1C(=O)c1c(O)c3c(c(O)c1C2=O)C[C@@](O)(C(C)=O)C[C@@H]3O[C@H]1C[C@H](N)[C@H](O)[C@H](C)O1 -32.7%
COc1cc(NC(=O)Cn2cnc3sc(C)c(S(=O)(=O)N4CCC(C)CC4)c3c2=O)cc(OC)c1OC -0.624%
Cc1ccc2c(=O)c(C(=O)c3ccccc3)cn(CC(=O)Nc3ccccc3C)c2n1 8.29%
O=C(COc1ccccc1F)Nc1ccc2nc(SCC(=O)N3CCCC3)sc2c1 14.1%
COc1ccc(CNC(=O)c2cc3c(=O)[nH]c4ccccc4c3n2C)c(OC)c1 -10.9%
COc1ccc(Cl)cc1NC(=O)NCc1noc2ccccc12 -24.5%
Cc1ccc(-c2c(C(=O)N(C)Cc3ccccc3)oc(=O)c3ccccc23)cc1 -26.5%
O=C(CN1CCCN(Cc2cccc(F)c2)S1(=O)=O)Nc1ccc2c(c1)OCCO2 0.0904%
O=C(NCC(c1cccnc1)N1CCc2ccccc2C1)C(=O)Nc1ccc(F)cc1F (configuration not stated) -18.7%
Cc1cccc(-c2nc(C)c(CCNC(=O)c3cccs3)s2)c1 2.77%
CC(C)c1ccc(NC(=O)CCNS(=O)(=O)c2ccc3c(c2)oc(=O)n3C)cc1 -9.75%
O=C(CCS(=O)(=O)c1nc(-c2ccc3c(c2)OCO3)cc(C(F)(F)F)n1)Nc1ccc(F)cc1F 4.5%
COC(=O)c1nnn(-c2ccc(Cl)cc2)c1C(=O)OC 2.93%
Cc1ccc(-n2ncc(C(=O)N3CCN(C(=O)c4ccco4)CC3)c2C2CCN(C(=O)OC(C)(C)C)CC2)cc1 7.37%
CCS(=O)(=O)c1ncc(Cl)c(C(=O)Nc2c(C(=O)c3ccc(C)cc3)oc3ccccc23)n1 -8.81%
COc1cccc(-c2cn3c(n2)sc2cc(C(=O)NCCC4=CCCCC4)ccc23)c1 -1.32%
Cc1cccc(CCNC(=O)c2nn(C)c3c2CSc2ccccc2-3)c1 -8.18%
CCOc1ccc(CN(C(=O)c2cc(=O)c3cc(Cl)ccc3o2)C2CCS(=O)(=O)C2)cc1 (configuration not stated) -2.19%
CCCCOC(=O)c1c(C)oc2ccc(NS(=O)(=O)c3ccc(F)cc3C)cc12 -19.3%
COc1ccc(-c2cc(C(F)(F)F)n3nc(C(=O)Nc4sc5c(c4C(=O)OC(C)C)CCCC5)cc3n2)cc1OC -16.6% [at 11.5 µM]
NC(N)=NC(=O)c1nc(Cl)c(N)nc1N
CCN(CC)C(=O)C1CCN(c2cc(C)nc3c(-c4ccc(OC)c(OC)c4)c(C)nn23)CC1 -5.2%
Cn1c(C(=O)N2CCCC(C(=O)N3CCN(c4ccccc4)CC3)C2)cc2sccc21 (configuration not stated) -22.8%
CCCCNC(=O)CSC1=Nc2ccccc2C2=NC(CCC(=O)NCc3ccccc3OC)C(=O)N12 (configuration not stated) -8.8%
COc1ccc(NC(=O)Cn2c(=O)n(-c3ccc(C)c(C)c3)c(=O)c3c4c(sc32)CCCCC4)cc1Cl -14.5%
CCc1ccc(NC(=O)CSc2cn(CC(=O)N3CCOCC3)c3ccccc23)cc1 17.2%
O=c1oc2c(O)c(O)cc3c(=O)oc4c(O)c(O)cc1c4c23
COc1cc2c(cc1OC)n(CC(=O)Nc1ccccc1)c(=O)n1nc(-c3ccccc3)nc21 -7.31%
COC(=O)c1ccc(NC(=O)C(=O)NCCc2sc3nc(-c4ccc(OC)cc4)nn3c2C)cc1 -2.81%
O=C(CCn1c(=O)c2cccn2c2cccnc21)NCc1ccc(Cl)cc1 1.25%
COc1ccccc1NC(=O)C1=C(C)Nc2c(C(=O)Nc3cccc(C)c3)cnn2C1c1ccccc1C (configuration not stated) -14.1%
Cc1ccc(/C=C/c2nc3ccccc3n2S(=O)(=O)c2cccc(Cl)c2)cc1 18.3%
Cc1cccc(OC(=O)c2nc(SCc3ccccc3F)ncc2Cl)c1 1.23%
Cc1ccc(Nc2nc3c(S(=O)(=O)c4ccccc4)nnn3c3ccc(Cl)cc23)c(C)c1 -23.8%
CCCCC(CC)CNC(=O)CC(C)OC(=O)CCC(=O)O (configuration not stated) 28.8%
O=C(NCC(c1ccc2c(c1)OCO2)N1CCOCC1)C(=O)Nc1ccc(Cl)cc1 (configuration not stated) -26.9%
Cc1ccccc1OCCSc1nnc(-c2ccc([N+](=O)[O-])cc2)o1 2.04%
